Consider 24 molecules from ChEMBL document CHEMBL4888484, “Replenishing the malaria drug discovery pipeline: Screening and hit evaluation of the MMV Hit Generation Library 1 (HGL1) against asexual blood stage Plasmodium falciparum ,using a nano luciferase reporter read-out” (2022).

The campaign covered roughly 150,000 compounds. About 540 (0.36%) showed an effect of 50% or more. Some of the results follow.

For this assay, the system named is Plasmodium falciparum. The assay can be described thus: Primary screen in NF54 nanoGlo assay, in single point, at 2uM, 72h; a lower Z score goes with more inhibition. The assay is classed as functional, Erythrocyte. The conditions noted are these: timepoint 72 hour.
In the case of `CCNC(=O)NCCN1CCC(c2cccs2)CC1`, the “% Inhibition” value is listed as -15% and the Z score came out at 2.24.
For `COCCCN(CCOC)C(=O)Nc1ccnc(C)c1Cl`, the “% Inhibition” value was -6% and the Z score amounted to 0.99.
`CC[C@H](C)C(=O)Nc1cc(C(=O)OC)cc(C(=O)OC)c1`: the “% Inhibition” value was found to be 19% and the Z score is given as -2.34.
Take `COCCc1noc(-c2cnc(N(C)C)nc2C)n1`: the “% Inhibition” value was determined as 5% and the Z score is -0.82.
Take `CCOc1ccccc1C(F)(F)C(=O)NC(C)(C)CO`: the “% Inhibition” value is 4% and the Z score was -0.79.
`CC(C)N1CCc2nc(CN3CC[C@H](O)C34CCCC4)sc2C1`: the “% Inhibition” value was 1% and the Z score is given as -0.1.
Taken in the same sequence, the figures for `COc1ccc2c(C)c(C(=O)N[C@H]3CCOC[C@@H]3O)oc2c1OC` were -13% and 2.02.
Consider `c1cc(-c2nnn(CC3CCOCC3)n2)cs1`, for which the “% Inhibition” value is reported as -4% and the Z score amounted to 0.61.
For `Cc1cc(=O)n(-c2nc3c(c(=O)n(C)c(=O)n3C)n2CCc2ccccc2)[nH]1`, the “% Inhibition” value was -5% and the Z score was 0.91.
Taken in the same sequence, the figures for `Cc1nn(C)c2ncnc(N(C)Cc3cccc(-c4nnn[nH]4)c3)c12` were -8% and 0.98.
Turning to `CC[C@@H](CO)NC(=O)c1ccccc1C(F)(F)F`, the “% Inhibition” value is -1% and the Z score was found to be 0.17.
Taken in the same sequence, the figures for `Cc1cccc(C(=O)Nc2ccc3c(c2)nc(Cn2cccn2)n3CC(C)C)c1` were -8% and 0.83.
Taken in the same sequence, the figures for `COc1cc(NC(=O)c2ccc(CN3C(=O)CNC3=O)cc2)c(OC)cc1Cl` were -10% and 1.05.
As for `COc1ccc(C(=O)N2CC[C@@H]3COCCN(C)[C@@H]3C2)c(OC)c1`, the “% Inhibition” value was determined as 5% and the Z score is recorded as -0.9.
Taken in the same sequence, the figures for `O=C(NCC1CCCCC1O)c1cnn2ccncc12` (stereo not drawn) were 41% and -5.86.
With `CCn1c(CNc2cccc(C(=O)OC)c2)nc2cc(S(=O)(=O)N3CCCCC3)ccc21`, the “% Inhibition” value is reported as 12% and the Z score is -1.42.
For `O=C(NCc1cncc(C2CC2)c1)c1cscn1`, the “% Inhibition” value was -5% and the Z score was determined as 0.59.
As for `Cn1cccc(C(=O)N2CC(Oc3cccnc3)C2)c1=O`, the “% Inhibition” value is reported as -7% and the Z score worked out at 1.38.
The corresponding values for `O=C(Cc1ccccc1O)NO[C@@H]1CCCCO1` are -1% and 0.15.
With `CCC1CN(C(=O)NCc2ccnc(C)n2)CCC1c1ccccc1` (stereo not drawn), the “% Inhibition” value is given as -3% and the Z score is reported as 0.51.
Take `CC1=NS(=O)(=O)N(CC(=O)Nc2ccc(C(C)C)cc2)C=C1c1nc(-c2ccccc2)no1`: the “% Inhibition” value was -1% and the Z score amounted to 0.16.
On to `Cc1ccc(C#N)c(N2CCN(C[C@H]3CN(C(C)C)CCO3)CC2)n1`, for which the “% Inhibition” value was -6% and the Z score came out at 0.94.
`Cc1noc(C)c1CCC(=O)Nc1c(C)noc1C`: the “% Inhibition” value is -13% and the Z score is recorded as 1.24.
As for `CNC(=O)c1ccc(OCc2cnn(C)c2)c(OC)c1`, the “% Inhibition” value is -13% and the Z score is given as 2.43.
